This note sets out measurements from the supplement of paper PMC11417369.

Some of the results follow.

This assay relates to PfSIP2 AP2 domain 1 (GST-tagged). Nature of the assay: gcPBM binding intensity (ln(normalized median fluorescence intensity)); higher = stronger DNA binding. An outline of the steps:
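An Agilent 4 × 180k array of primer-extended double-stranded 36-bp intergenic genomic probes, with negative controls, was incubated for 1 h with GST-tagged P. falciparum DNA-binding domains expressed in E. coli. Alexa488 anti-GST antibody detected bound protein, scanned at 488 nm. Binding intensity is the highest Masliner-normalised natural-log median intensity across replicate spots of either probe orientation.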
For “ATATGAATATATATATGTACTAATTAGTAGTTTACG [XGTACX_site6273]”, the “gcPBM binding intensity (ln)” value stood at 7.22.
For “AGAAATTTACAAATACGTACACACATATATATATAT [XGTACX_site3141]” the value was 9.61.
The result for “GAAGATATGTAAAATTGTACATATTATTTTATTTTA [XGTACX_site5302]” reads 6.88; that for TCATAACAACTTTGTGTGCACATAAAACATGTATAT, 8.91.
For “TTTTTTTTTTCATTCACACAAAAAAAAAAAATTTAT [CACACA_site5921]”, the “gcPBM binding intensity (ln)” value amounted to 6.76.
For “TATAAGACATGATATATACACACCTTGTTTTAATTT [CACACA_site2266]” the value was 6.76.
The result for “TTTTACACTTTTTTTTGTACACACTAAAAAGATTAA [XGTACX_site8407]” reads 7.02.
For “AAAGGTTCATAAAAATGTACATAATTATTTACATGT [XGTACX_site2722]” the value was 7.03; for “CAAATCATATATAGCACACAAATTCTTTATTATTAT [CACACA_site2815]”, 6.78; for “CTGATCCACATTTATACACACCTCGGTTTGTAGAGA [CACACA_site4393]”, 6.73.
Turning to “AAAATATATAATATTTGTACATATTGATGGCAACAG [XGTACX_site6454]”, the “gcPBM binding intensity (ln)” value worked out at 7.05.
For “AAGACAACATAAATATGTACATATATTTATTATTTT [XGTACX_site1792]” the value was 6.94; for “TACAAAAAGAATGAAAAATATATAATAAAAATAAAA [XGTACX_negctrl_site159]”, 6.87.
With “CACATACCTATATACACACACAAAATAATAAAATAA [CACACA_site7150]”, the “gcPBM binding intensity (ln)” value was 7.32.
The result for “AGAATGGATTAGCTAGCACACACAAAAAAAAAAAAA [CACACA_site8995]” reads 6.93.
For “ACTAATATTTTATAAAGTACAAATTAATAAAATTCA [XGTACX_site5817]” the value was 6.98; for “TATATATATATATTGACACACATGTATTTCAATATT [CACACA_site2832]”, 8.96.
The result for “CTTATATATTGCCCTTCACACACACCCATATATATA [CACACA_site8795]” reads 7.48.
“AAGTATGGAAAGGAATATAAATTAATACTTTCATTG [XGTACX_negctrl_site131]”: the “gcPBM binding intensity (ln)” value is 6.54.
In the case of “TTTTGTAGATATGACTGTACATATTTTATACATAAC [XGTACX_site971]”, the “gcPBM binding intensity (ln)” value came out at 7.
The result for “AAAAAATAAATAAATACACACAAATATATATATATA [CACACA_site2543]” reads 9.48; that for “TGGTAATCCACATACACACACACATACACATATATA [CACACA_site2727]”, 7.31; that for “AAGAAAAAAAAAATTACACACTGCGCAGATACACAA [CACACA_site1289]”, 6.72.
On to “TAATATGTATATAAAAGTACAGACGATTATAATTAT [XGTACX_site173]”, for which the “gcPBM binding intensity (ln)” value is 6.99.
The result for “ATATATATATGTAAGAGTACACAAAAATATGTATGT [XGTACX_site4335]” reads 8.63; that for “AGTGGATGAGGACATACACACACACCGAAGTTGATA [CACACA_site9132]”, 6.57; that for “AAGGAATATATATACATACACACATATATATATATA [CACACA_site1665]”, 9.23.
The result for “AAAAAAAAAAAAAAAAAAAAAAATATATATATATAT [XGTACX_negctrl_site33]” reads 9.32; that for “AAATTTTCATGTGTTGCATGCTGAACTATTTTATCA [TGCATGCA_site856]”, 6.75.
For “AATAAAAAGGAAAGGTATATGTGTGCCCTTGTGTTA [TGCATGCA_negctrl_site83]” the value was 7.03; for “TATTTTTTCCTTTGTTTTTTAAACTATCTTAACTAA [XGTACX_negctrl_site519]”, 6.71; for “AAATAAATAAAAAACACACACAAATAAATAAATATA [CACACA_site2249]”, 6.91.
With “ATATAATAAATATATTGTACATATGAATCTACTAAA [XGTACX_site7610]”, the “gcPBM binding intensity (ln)” value was found to be 6.95.
The result for “TAAAAAATGATAGAAGTGCATAAAATAATATATATA [GTGCAC_site9904]” reads 7.91; that for “TTTCTATTTCCTTCACATCTTTTCATCTTTTTTTTT [CACACA_negctrl_site1110]”, 6.98.
The result for “GACTTGAAGAAATAAGTGCAGAGTTTTATTTTAATT [GTGCAC_site9912]” reads 7.93.
The result for “AAAAAATTCCTATATACACACACGCACATATTTATA [CACACA_site6192]” reads 7.13; that for “TTTATTAATAAGAAATGTACACAAAATTATTTCCAA [XGTACX_site5970]”, 7.11; that for “ATAGAGTCATTCCTCACACACACGCTATATGAATAG [CACACA_site2047]”, 7.04.
For the sequence “AAAAAATACTTATAAAGTACTAATATATATAAGCAG [XGTACX_site743]”, the “gcPBM binding intensity (ln)” value is 7.02.
For “TAATTAAAATTAAGAAGTACATTTTACTTTTAATGC [XGTACX_site5120]” the value was 6.98; for TATCATGTTTTTATGGTGCATGAAATCACACATTGA, 9.32; for “GAGAAATTTATACATACACACATATATATATTATAT [CACACA_site4038]”, 7.16.
The result for “AATACAAACCAAAAAGTAAATACATCAACATGATCA [CACACA_negctrl_site140]” reads 6.59; that for “TACACCATGATACATACACACAGACATATACTCATT [CACACA_site4708]”, 7.19; that for “TCCAAATGTTTGCGTTGTACTCTTTTTTTAAAACTA [XGTACX_site5148]”, 7.09.
With “CCTGAAATTTTATTATGTACATATTATAAAATGATT [XGTACX_site1434]”, the “gcPBM binding intensity (ln)” value was found to be 7.14.
The result for “TGGCACTAAAAAAATAAACACACAGATTTATATAAT [CACACA_site8386]” reads 6.8; that for “ATAACCACATAAAATATAATTATATATATATATATA [CACACA_negctrl_site603]”, 9.44; that for “ATTCCTCCCATGGAATGTACTCATCAAATAAATAAA [XGTACX_site6543]”, 6.86.
For “AATTTGGTGTGTGTAAAAGTATGTGTCTATATTTAT [GTGCAC_negctrl_site166]” the value was 7.11.
As for “AGTTATATGATTAATACACACAACAAATGTTTCTTC [CACACA_site1092]”, the “gcPBM binding intensity (ln)” value came out at 6.96.
The result for “ATGTATGTTTATTACTATTTTGAGAATAGACTATAA [CACACA_negctrl_site1366]” reads 6.87.
The result for “ACGACTAAATATATGAGTACATATATATATAAATAT [XGTACX_site7522]” reads 6.9; that for “AAGAATCATATTTAAACACACATACAGATATATATA [CACACA_site5787]”, 7.25.
For “TGCAAAAAATTCCACACACACACACCCATATAAATA [CACACA_site1230]” the value was 7.17.
“TCTAAAATAAATAATGCATGTTAAAAAAAAATATAT [TGCATGCA_site562]”: the “gcPBM binding intensity (ln)” value stood at 7.04.
As to “CAAATATGTCTTATTCGTACACATATATATATATAT [XGTACX_site8817]”, the “gcPBM binding intensity (ln)” value was found to be 9.64.
For “TTTCTTTATAAATTAATATTCACAACACAAAATATA [CACACA_negctrl_site450]” the value was 7.01; for “AAGAAAATAAAAAATAAGCATAATATGATATGATAT [TGCATGCA_negctrl_site196]”, 6.78.
Turning to “AAAAATTTGGCATACACACACACACCGACACAGACA [CACACA_site4489]”, the “gcPBM binding intensity (ln)” value came out at 7.16.
The result for “GTGCATATAAGGAAGTGTACGAAAAAAAATATTCCA [XGTACX_site8490]” reads 9.04.
For “ATTTATTAAATAAAAAGTACAAAATAAGAAAGAAGA [XGTACX_site6935]” the value was 7.43; for “TTATATATATCTAATTGTACAATATTATGTTCATTA [XGTACX_site7479]”, 6.93; for “ATATATAATATAATATGTACATAAAATTTTAACATT [XGTACX_site5773]”, 7.23.
“AAAAAAACAGTGAATGCACACATTTAAGATCCATAT [CACACA_site3148]”: the “gcPBM binding intensity (ln)” value amounted to 7.13.
On to “TATATTCCCTTAATCACACATAAATAAAAAAAAATA [CACACA_site6094]”, for which the “gcPBM binding intensity (ln)” value stood at 7.12.
The result for “TATTTCCTTTTTCTTGTTATTCATGAGAAAAAATGA [CACACA_negctrl_site482]” reads 6.98.
The result for GAAATTTTTAATGTGGTGCACAGGAAATTTTTTCTT reads 11; that for “AAAATAATAATAGGCACACATATATATATATATATA [CACACA_site2058]”, 9.25.
For “AAAAAAAAAAAAACTACACACATACAAATATTTATA [CACACA_site5430]” the value was 7.03.
TACATACATACAGGAGTGCATATATCACAATTATTA: the “gcPBM binding intensity (ln)” value stood at 9.25.
For “AGTATACTCGGACACACACACACATATATATATATA [CACACA_site5031]” the value was 9.59.
With “TTTGTATAGTTGTAGGTGCATATCATTTTTAAATGT [GTGCAC_site9708]”, the “gcPBM binding intensity (ln)” value came out at 10.4.
For “TGTTAATAAAGGTGTACACAAAATAAAAAAAATTAT [CACACA_site4288]” the value was 7.72.
For “AAAAAAAAAGGTAACGCATGCTTTTAGATTATATTA [TGCATGCA_site398]” the value was 6.56; for “TATAATTATATTTGGAGTACAAATTTTTTTTTTTTT [XGTACX_site7494]”, 7.14; for “AAGTATGCTTGCTACTTATTAAGTGGCAATATAATT [XGTACX_negctrl_site74]”, 6.78.
For “AGAACCATATATAAATGTACATGTTAATATGAATAA [XGTACX_site130]” the value was 7.03; for “GGACAAAAAAAAAAAATAAAATAAAAATAAATAAAT [XGTACX_negctrl_site106]”, 6.71; for “AAATATATATGAAGATGTACATATATATATGTAAAT [XGTACX_site4039]”, 7.11.
With “TAACACTTATAAAAAAGTACTGATGAAATAATACTA [XGTACX_site7305]”, the “gcPBM binding intensity (ln)” value is 6.69.
For “AAAAATTCCAGACACACACACACATATAAATAAATA [CACACA_site1232]” the value was 7.08; for “AAAAAAAAAAAAAAGAGTACTTTTTTCTCATTACTA [XGTACX_site8353]”, 7.12.
Turning to “AAAAAAAAAAAAATAGGTACGTAAATATTTCTTTAA [XGTACX_site6423]”, the “gcPBM binding intensity (ln)” value was 6.97.
For “TCTTTTAGTTTTATCCACATAATAAAAAGCAAAAAA [GTGCAC_negctrl_site368]” the value was 7.09; for “TATTCTTCAATTTAAAGTACAAAAATTACTATACTT [XGTACX_site6599]”, 6.87; for “AATTAAAATATATATATACACACGTAATTATATATA [CACACA_site3819]”, 6.8.
The result for “ATTGTGGCAATATATTGTACATGTAATATAAATATA [XGTACX_site5415]” reads 7.06.
